Experimental data from a compilation of properties of binary mixtures (doi:10.1021/je9702403).
The densities may have been worked out from excess volumes.

Test: xn = mol fraction of the nth substance listed
Conditions: 100 kPa

CC(C)O + CC#N
x1 = 1
Conditions	mass density [kg/m3]
293.15 K	785.3
303.15 K	776.8
323.15 K	758.9

CC#N + CC(C)O
mass density [kg/m3]
Conditions	293.15 K	303.15 K	313.15 K	323.15 K
x2 = 0	–	–	760.3	749.2
x2 = 0.05	781.4	770.7	759.9	748.9
x2 = 0.1	–	–	759.8	748.9
x2 = 0.15	780.9	770.4	759.8	–
x2 = 0.2	–	770.4	759.9	–
x2 = 0.25	780.9	–	760.1	749.4
x2 = 0.3	781	770.7	760.3	749.7
x2 = 0.3501	781.2	770.9	760.6	750.1
x2 = 0.4	–	–	760.9	750.5
x2 = 0.45	781.6	–	–	750.9
x2 = 0.5	781.9	–	761.7	751.4
x2 = 0.55	–	–	762.2	752
x2 = 0.5999	782.5	772.7	–	752.6
x2 = 0.6499	782.8	773.2	763.3	–
x2 = 0.7	783.2	773.7	763.9	–
x2 = 0.7499	–	774.2	–	–
x2 = 0.7999	784	774.7	765.2	755.6
x2 = 0.8499	–	775.2	765.9	756.4
x2 = 0.95	785.1	776.4	767.5	758.3

CCCCCl + CC(C)O
mass density [kg/m3]
Conditions	293.15 K	303.15 K	313.15 K	323.15 K
x2 = 0	886.5	–	864	852.5
x2 = 0.0499	881.5	870.6	–	–
x2 = 0.1	877.1	865.9	854.4	842.9
x2 = 0.15	872.7	–	850	–
x2 = 0.2	868.3	857.2	845.7	–
x2 = 0.25	864	852.9	841.4	829.9
x2 = 0.3	–	848.6	837.1	–
x2 = 0.35	855	844.1	–	–
x2 = 0.4	850.5	839.6	828.3	816.8
x2 = 0.4499	845.9	835.1	823.8	–
x2 = 0.5	841.2	830.5	–	807.9
x2 = 0.55	836.4	–	–	803.5
x2 = 0.6	831.4	820.7	809.8	798.6
x2 = 0.65	826.3	815.9	805.1	794
x2 = 0.6999	821.1	811	–	789.5
x2 = 0.75	815.6	805.7	–	784.7
x2 = 0.8	–	–	790.2	779.8
x2 = 0.85	804.2	–	785	774.7
x2 = 0.9	798.1	789.1	779.4	769.6
x2 = 0.95	791.8	–	773.8	–

CC(C)O + CCCCCl
x1 = 1
Conditions	mass density [kg/m3]
293.15 K	785.3
303.15 K	776.8
313.15 K	768
323.15 K	758.9
